Patent US20120100139A1 (APTEVO RESEARCH AND DEVELOPMENT, published 2012)

Experiments:
[1] = molecular target: T1, CD80-mIg (Ancell Catalog #510-020) (UniProt P33681 35-242); test: SPR (BIAcore T100), CD80-mIgG immobilized on CM5; steady-state equilibrium fit
T1 construct: Bought reagent; also called CD80-mIgG; sCD80
T1 sequence (looked up): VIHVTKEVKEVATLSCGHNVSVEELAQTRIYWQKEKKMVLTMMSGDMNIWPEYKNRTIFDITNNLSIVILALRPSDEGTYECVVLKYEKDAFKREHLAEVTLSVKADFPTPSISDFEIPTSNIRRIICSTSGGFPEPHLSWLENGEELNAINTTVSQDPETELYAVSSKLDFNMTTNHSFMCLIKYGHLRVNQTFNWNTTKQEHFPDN
Description: (§1) Surface plasmon resonance (SPR) measurements were performed on a BIAcore™ T100 SPR (Pharmacia Biotech AB, Uppsala) using HBS-EP+ (GE Healthcare) as a running buffer. […] CTLA4-containing constructs were injected for 150 seconds, at a flow rate of 10 μl/min, in a series of concentrations from 5 nM to 1 μM. Dissociation was monitored for 600 seconds, and the surface was regenerated by injecting 50 mM sodium citrate, 500 mM sodium chloride, pH 4.0, for 60 seconds. […] Data were analyzed using BiaEvaluation for the T100 software (version 2.0.1, GE Healthcare).

[2] = molecular target: T2, Murine CD86-mIgG (R&D Systems, Inc) (murine, UniProt P42082 24-244, limits assumed); test: SPR (BIAcore T100), murine CD86-mIgG immobilized on CM5; steady-state equilibrium, multiple Rmax fit
T2 construct: also called muCD86
T2 sequence (looked up): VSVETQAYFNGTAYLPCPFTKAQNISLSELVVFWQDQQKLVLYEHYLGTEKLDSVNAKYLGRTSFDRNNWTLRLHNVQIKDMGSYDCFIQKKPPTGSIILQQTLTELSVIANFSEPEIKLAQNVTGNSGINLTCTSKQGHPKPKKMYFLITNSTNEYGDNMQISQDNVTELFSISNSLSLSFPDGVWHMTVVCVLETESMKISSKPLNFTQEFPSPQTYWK
Description: (§2) SPR measurements were performed on a BIAcore™ T100 SPR (Pharmacia Biotech AB, Uppsala) using HBS-EP+ (GE Healthcare) as a running buffer. Murine CD86-mIgG (25 μg/mL in 10 mM sodium acetate, pH 4.0, R&D Systems, Inc) was directly immobilized onto a CM5 chip using standard amine coupling chemistry (Biacore Amine Coupling Kit, GE Healthcare), with final immobilization levels of 150, 493, and 746 Ru. CTLA4-containing constructs were injected for 150 seconds, at a flow rate of 10 μl/min, in a series of concentrations from 4 nM to 8 μM. Dissociation was monitored for 600 seconds (CTLA4 constructs) or 1200 seconds (GL1 constructs), and the surface was regenerated by injecting 10 mM glycine, pH 1.7, for 60 seconds. […] Data were analyzed using BiaEvaluation for the T100 software (version 2.0.1, GE Healthcare).

[3] = molecular target: T1, CD80-mIg (Ancell Catalog #510-020); test: SPR (BIAcore T100), CD80-mIgG immobilized on CM5; bivalent analyte model, first site
Description: as §1

[4] = molecular target: T2, Murine CD86-mIgG (R&D Systems, Inc); test: SPR (BIAcore T100), murine CD86-mIgG immobilized on CM5; bivalent analyte model, second site
Description: as §2

[5] = molecular target: T1, CD80-mIg (Ancell Catalog #510-020); test: SPR (BIAcore T100), CD80-mIgG immobilized on CM5; bivalent analyte model, second site
Description: as §1

[6] = molecular target: T3, CD86 on cells (WIL2-S human B-lymphoblastoid cells; HuCD86-2A2 CHO cells expressing CD86) (human, UniProt P42081 24-329); test: flow cytometry on WIL2-S cells
T3 construct: whole, on cells; also called cell surface CD86
T3 sequence (looked up): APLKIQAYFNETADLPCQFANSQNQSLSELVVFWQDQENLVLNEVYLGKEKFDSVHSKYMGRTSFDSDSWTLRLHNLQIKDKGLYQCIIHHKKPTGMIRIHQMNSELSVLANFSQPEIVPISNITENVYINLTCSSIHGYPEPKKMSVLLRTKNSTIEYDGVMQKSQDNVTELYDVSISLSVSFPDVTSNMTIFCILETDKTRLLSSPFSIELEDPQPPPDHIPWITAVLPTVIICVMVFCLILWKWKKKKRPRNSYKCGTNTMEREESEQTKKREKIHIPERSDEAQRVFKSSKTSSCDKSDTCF
Description: (§3) Briefly, WIL2-S or HuCD86-2A2 cells were incubated with test molecules containing a CD86 antagonist at concentrations ranging from saturation to background levels. […] After the incubation, cells were washed and a fluorophore (R-phycoerythrin) tagged F(Ab′)₂ antibody specific for the Fc portion of the xceptor molecule, IL10R-Ig fusion protein, or anti-IL10 antibody. The tagged cells were then passed through a flow cytometer and data was analyzed by plotting median fluorescence intensity of each sample.

[7] = molecular target: T2, Murine CD86-mIgG (R&D Systems, Inc); test: SPR (BIAcore T100), murine CD86-mIgG immobilized on CM5; bivalent analyte model, first site
Description: as §2

[8] = molecular target: T4, PD1 ectodomain fused to a C-terminal AviTag, biotinylated (biotinylated on the AviTag with the BirA enzyme); test: SPR (BIAcore T100), biotinylated PD1 captured on neutravidin; 1:1 binding model
T4 construct: also called biotinylated PD1
T4 chain: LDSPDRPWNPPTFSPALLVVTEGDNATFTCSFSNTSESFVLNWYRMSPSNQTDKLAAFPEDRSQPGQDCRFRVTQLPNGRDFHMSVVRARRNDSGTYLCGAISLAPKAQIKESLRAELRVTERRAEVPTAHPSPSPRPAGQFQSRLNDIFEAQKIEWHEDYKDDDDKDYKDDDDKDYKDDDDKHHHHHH
Description: (§4) SPR measurements were performed on a BIAcore™ T100 SPR (Pharmacia Biotech AB, Uppsala) using HBS-P+ (GE Healthcare) as a running buffer. […] PDL1/2-containing constructs were injected for 120 seconds, at a flow rate of 30 μl/min, in a series of concentrations from 6 nM to 2 μM. Dissociation was monitored for 1200 seconds, and the surface was regenerated by injecting 50 mM NaOH, 1M NaCl for 30 seconds.
(§5) Data were analyzed using BiaEvaluation for the T100 software (version 2.0.1, GE Healthcare).

[9] = molecular target: T4, PD1 ectodomain fused to a C-terminal …; test: SPR (BIAcore T100), biotinylated PD1 captured on neutravidin; kinetic KD calculated from first site ka and kd
Description: as §4, §5

[10] = molecular target: T3, CD86 on cells (WIL2-S human …); test: flow cytometry on CD86-expressing CHO cells
Description: as §3

[11] = molecular target: T5, soluble IL-10 receptor 1 (IL-10R1, R&D Systems) (human, UniProt Q13651 22-235); test: ELISA, sIL10Ra (FIG. 12); also simultaneous with CD80 (FIG. 13)
T5 construct: Bought soluble receptor; also called sIL10Ra; sIL10R1
T5 sequence (looked up): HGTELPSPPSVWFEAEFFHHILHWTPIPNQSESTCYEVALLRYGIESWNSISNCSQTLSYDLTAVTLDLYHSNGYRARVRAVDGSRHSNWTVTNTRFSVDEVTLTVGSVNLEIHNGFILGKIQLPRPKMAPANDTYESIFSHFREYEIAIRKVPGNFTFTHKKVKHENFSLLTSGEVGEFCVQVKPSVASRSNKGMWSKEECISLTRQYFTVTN

[12] = molecular target: T1, CD80-mIg (Ancell Catalog #510-020); test: ELISA, CD80

B1: (CTLA4::IL10)-75 xceptor (Fc fusion)
chain: [about 120 residues not spelt out]EPKSSDKTHTCPPCPAPEAAGAPSVFLFPPKPKDTLMISRTPEVTCVVVDVSHEDPEVKFNWYVDGVEVHNAKTKPREEQYNSTYRVVSVLTVLHQDWLNGKAYACAVSNKALPAPIEKTISKAKGQPREPQVYTLPPSRDELTKNQVSLTCLVKGFYPSDIAVEWESNGQPENNYKTTPPVLDSDGSFFLYSKLTVDKSRWQQGNVFSCSVMHEALHNHYTQKSLSLSPGQRHNNSSLNTGTQMAGHSPNSSPGQGTQSENSCTHFPGNLPNMLRDLRDAFSRVKTFFQMKDQLDNLLLKESLLEDFKGYLGCQALSEMIQFYLEEVMPQAENQDPDIKAHVNSLGENLKTLRLRLRRCHRFLPCENKSKAVEQVKNAFNKLQEKGIYKAMSEFDIFINYIEAYMTMKIRN
B1 showed a Kd [1] of 28 nM, a Kd [2] of 1810 nM and a koff [3] of 0.0124 s⁻¹. The kon [3] was 1.21e+06 M⁻¹ s⁻¹, the “Second Site ka” value [4] was 0.0405 s⁻¹ and the “Second Site kd” value [4] was 0.0625 s⁻¹. For the same binder, the “Second Site ka” value [5] was 0.0207 s⁻¹, the “Second Site kd” value [5] was 0.0431 s⁻¹ and the binding result [6] was “binds”. The koff [7] was 0.0228 s⁻¹ and the kon [7] was 13200 M⁻¹ s⁻¹.

B2: (CTLA4::PDL2)-65 xceptor (Fc fusion)
chain: [about 120 residues not spelt out]EPKSSDKTHTCPPCPAPEAAGAPSVFLFPPKPKDTLMISRTPEVTCVVVDVSHEDPEVKFNWYVDGVEVHNAKTKPREEQYNSTYRVVSVLTVLHQDWLNGKAYACAVSNKALPAPIEKTISKAKGQPREPQVYTLPPSRDELTKNQVSLTCLVKGFYPSDIAVEWESNGQPENNYKTTPPVLDSDGSFFLYSKLTVDKSRWQQGNVFSCSVMHEALHNHYTQKSLSLSPGQRHNNSSLNTRTQKARHSPNSLFTVTVPKELYIIEHGSNVTLECNFDTGSHVNLGAITASLQKVENDTSPHRERATLLEEQLPLGKASFHIPQVQVRDEGQYQCIIIYGVAWDYKYLTLKVKASYRKINTHILKVPETDEVELTCQATGYPLAEVSWPNVSVPANTSHSRTPEGLYQVTSVLRLKPPPGRNFSCVFWNTHVRELTLASIDLQSQMEPRTHPT
Binder B2 has a koff [8] of 0.0395 s⁻¹, a kon [8] of 116000 M⁻¹ s⁻¹ and a Kd [9] of 340 nM.

B3: (CTLA4::IL10)-69 xceptor (Fc fusion)
chain: [about 120 residues not spelt out]EPKSSDKTHTCPPCPAPEAAGAPSVFLFPPKPKDTLMISRTPEVTCVVVDVSHEDPEVKFNWYVDGVEVHNAKTKPREEQYNSTYRVVSVLTVLHQDWLNGKAYACAVSNKALPAPIEKTISKAKGQPREPQVYTLPPSRDELTKNQVSLTCLVKGFYPSDIAVEWESNGQPENNYKTTPPVLDSDGSFFLYSKLTVDKSRWQQGNVFSCSVMHEALHNHYTQKSLSLSPGEQKLSNMENRLKPFFTSGSADTSPNSSPGQGTQSENSCTHFPGNLPNMLRDLRDAFSRVKTFFQMKDQLDNLLLKESLLEDFKGYLGCQALSEMIQFYLEEVMPQAENQDPDIKAHVNSLGENLKTLRLRLRRCHRFLPCENKSKAVEQVKNAFNKLQEKGIYKAMSEFDIFINYIEAYMTMKIRN
B3: binds [10]; binds [11]; binds [12].
